Results taken from PubChem BioAssay AID1460 (National Center for Advancing Translational Sciences (NCATS), 2008).
“And” between values parts separate entries of the source, which are not always exact repeats. Equal entries are not always repeated. Out of some 270,000 compounds screened, about 5,800 (2.1%) were called active. The shares of active, inactive and inconclusive entries below differ from those in the screen. The call rests on the fitted dose curve; in most records, active means well fitted inhibition curve with a large enough effect; inconclusive means small, poorly fitted or top-dose-only effect; inactive means flat fitted curve, though single readings scatter. Where the call is inconclusive, the potency comes from a doubtful curve fit.

What follows are molecules tested against Microtubule-associated protein tau (Homo sapiens) (UniProt P10636) (assay: qHTS for Inhibitors of Tau Fibril Formation, Thioflavin T Binding). Conditions: recombinant tau K18 P301L (four-repeat tau fragment), heparin-induced fibrillization, ThT fluorescence; series mostly up to 57.4 µM.
Outline: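 Tau K18 P301L fragment (15 uM unlabeled plus 0.24 uM Alexa 594-labeled) in 100 mM sodium acetate pH 7 with compound, fibrillization induced by 20 uM heparin for 6 hr at 37 C. Thioflavin T (30 uM) added, fluorescence read after 1 hr (ex 450, em 510 nm).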
Further: nearly all actives have a fitted effect of over 55% in size.
Potency means the concentration at half of the fitted maximal effect; tags describe the fitted curve by direction and shape.

Sequence of UniProt P10636 (P10636 whole entry, looked up, the tested form may be a part): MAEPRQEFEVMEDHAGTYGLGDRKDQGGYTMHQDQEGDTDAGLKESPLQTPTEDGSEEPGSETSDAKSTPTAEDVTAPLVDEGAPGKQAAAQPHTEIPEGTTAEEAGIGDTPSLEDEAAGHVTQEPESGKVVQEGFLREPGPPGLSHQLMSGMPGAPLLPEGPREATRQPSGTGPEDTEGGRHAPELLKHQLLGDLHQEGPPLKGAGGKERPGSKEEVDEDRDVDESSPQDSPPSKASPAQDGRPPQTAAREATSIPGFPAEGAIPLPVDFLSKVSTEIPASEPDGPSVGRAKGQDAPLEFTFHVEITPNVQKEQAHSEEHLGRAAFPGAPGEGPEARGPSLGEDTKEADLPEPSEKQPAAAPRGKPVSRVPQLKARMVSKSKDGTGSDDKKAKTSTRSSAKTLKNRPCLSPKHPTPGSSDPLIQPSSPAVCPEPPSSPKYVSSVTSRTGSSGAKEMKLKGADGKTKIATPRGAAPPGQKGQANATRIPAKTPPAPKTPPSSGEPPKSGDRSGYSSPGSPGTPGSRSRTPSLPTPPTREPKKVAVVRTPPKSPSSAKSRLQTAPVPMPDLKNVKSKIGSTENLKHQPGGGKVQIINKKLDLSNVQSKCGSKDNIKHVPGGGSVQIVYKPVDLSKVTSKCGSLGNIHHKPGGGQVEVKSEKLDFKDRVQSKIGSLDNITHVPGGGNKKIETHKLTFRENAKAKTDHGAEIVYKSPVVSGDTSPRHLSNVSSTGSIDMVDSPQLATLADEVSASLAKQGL

With `O=C(c1ccco1)N1CCN(c2ncnc3sc4c(c23)CCC4)CC1` as the molecule, how does the Potency read?
The Potency was “inactive”.

How did the Potency turn out when `Cc1occc1-c1nnc(SCC(=O)Nc2ccccc2-c2ccccc2)n1C` was run?
Its Potency is inconclusive: 14.1 µM [inhibitor, partial curve].

`COCCNC(=O)CSc1nc(-c2ccc(F)cc2)[nH]c1-c1ccc(Cl)cc1` was tested. Which Potency did it give?
Its Potency is “inactive”.

How did the Potency turn out when `O=c1c2cc(O)c(O)cc2oc2cc(O)c(C3OC(CO)C(O)C(O)C3O)c(O)c12` (stereo not given) was run?
Its Potency is “inactive”.

`O=C1CCCC2CCCCN12` (stereo not given) was tested. Which Potency did it give?
The Potency was “inactive”.

For `CCOC(=O)c1c(NC(=O)CSc2cn(CCNC(=O)c3ccc(OCC)cc3)c3ccccc23)sc2c1CCCC2`, which Potency is on record?
Its Potency is inconclusive: 10 µM [inhibitor, partial curve, poor fit].

Which Potency does the source give for `O=C1CC(=C(c2ccccc2)c2ccccc2)C(=O)N1CCCCN1CCN(c2ccccc2)CC1` here?
The Potency was inconclusive: 28.2 µM [inhibitor, single point].

`Cc1cc(N2CCCCC2)nc2ccc(NC(=O)c3ccc(F)cc3)cc12` was tested. Which Potency did it give?
Its Potency is inconclusive: 6.31 µM [inhibitor, full curve].

Which Potency does the source give for `Cc1cccc(CC(=O)NC2CC(=O)N(c3cccc(F)c3)C2)c1` (stereo not given) here?
Its Potency is “inactive”.

With `COc1ccccc1CCNC(=O)Cc1c(C)c2ccc(O)cc2oc1=O` as the molecule, how does the Potency read?
The Potency was “inactive”.

With `O=C(Cc1ccccc1)N/N=C/c1cccs1` as the molecule, how does the Potency read?
The Potency was “inactive”.

`Cc1c(C)c2c(c(C)c1O)CCC(C)(CN1CCN(c3cc(N4CCCC4)nc(N4CCCC4)n3)CC1)O2` (stereo not given) was tested. Which Potency did it give?
The Potency was inconclusive: 11.2 µM [inhibitor, partial curve].

Which Potency does the source give for `COCc1cc(C)nc2sc3c(=O)n(-c4cc(C)ccc4C)nnc3c12` here?
The Potency was “inactive”.

With `O=C(Nc1nnc(C2CC2)s1)c1cc(-c2ccccc2)nn1-c1ccccc1` as the molecule, how does the Potency read?
Its Potency is “inactive”.

Which Potency does the source give for `COc1cccc(/C=N/Nc2nc(Nc3ccc([N+](=O)[O-])cc3)nc(N3CCCC3)n2)c1O` here?
The Potency was inconclusive: 7.08 µM [inhibitor, partial curve].

`O=C1c2ccccc2C(=O)c2c1ccc(O)c2O` was tested. Which Potency did it give?
The Potency was active: 8.91 µM.

How did the Potency turn out when `CCN1C(=O)/C(=C2\C=Cc3ccccc3N2CC)SC1=S` was run?
Its Potency is active: 6.31 µM.

How did the Potency turn out when `c1cnc2ccc3ncccc3c2c1` was run?
The Potency was inconclusive: 3.98 µM [inhibitor, partial curve, poor fit].

`CCn1c(O)c(N=NC(=O)C2C(=O)NCC2c2ccccc2)c2ccccc21` (stereo not given) was tested. Which Potency did it give?
Its Potency is inconclusive: 12.6 µM [inhibitor, partial curve, poor fit].

For `COC(=O)c1ccc2c(=O)n(CCCCCC(=O)NCc3ccccn3)c(=O)[nH]c2c1`, which Potency is on record?
The Potency was “inactive”.

With `CC(=O)OC1CC2C(C)(C)C(O)CC[C@@]2(C)C2CC[C@@]3(C)C(c4ccoc4)OC(=O)C4O[C@@]43[C@]12C` (stereo not given in full) as the molecule, how does the Potency read?
Its Potency is “inactive”.

With `Cc1ccc(N=C2NC(=O)/C(=C/c3cccnc3)S2)c(C)c1` as the molecule, how does the Potency read?
Its Potency is inconclusive: 35.5 µM [inhibitor, partial curve].

Which Potency does the source give for `O=c1c2ccccc2n(Cc2cccc(Cl)c2)c(=O)n1CCc1ccccc1` here?
Its Potency is inconclusive: 28.2 µM [inhibitor, single point].

`COc1ccc(/C=C/C2=CC(C)(C)NC(=S)N2)c(OC)c1` was tested. Which Potency did it give?
The Potency was inconclusive: 14.1 µM [inhibitor, partial curve].

`COc1cccc(CNc2ncnc3onc(-c4ccc(F)cc4)c23)c1` was tested. Which Potency did it give?
Its Potency is “inactive”.

`Cc1ccc(-c2cc(-c3ccc(Cl)cc3)c(C#N)c(N)n2)o1` was tested. Which Potency did it give?
Its Potency is inconclusive: 12.6 µM [inhibitor, partial curve].

How did the Potency turn out when `COc1ccccc1NC(=O)COc1ccc(CO)cc1Cl` was run?
The Potency was inconclusive: 31.6 µM [inhibitor, partial curve].

Which Potency does the source give for `O=C(c1ccc(COc2ccccc2Cl)o1)N1CCN(Cc2ccc3c(c2)OCO3)CC1` here?
Its Potency is inconclusive: 15.8 µM [inhibitor, partial curve, poor fit] and inconclusive: 31.6 µM [inhibitor, partial curve].

`COc1ccc(-c2nc(CSCC(=O)NCc3ccc4c(c3)OCO4)c(C)o2)cc1` was tested. Which Potency did it give?
Its Potency is inconclusive: 1.26 µM [inhibitor, full curve, poor fit].

With `O=C1CCSC2(C(=O)N(Cc3ccc(F)cc3)c3ccccc32)N1c1ccccc1` (stereo not given) as the molecule, how does the Potency read?
The Potency was inconclusive: 12.6 µM [inhibitor, partial curve].

For `COc1ccc(C/C(N)=N/OC(=O)c2ccc(Cl)cc2)cc1`, which Potency is on record?
Its Potency is “inactive”.

With `COc1ccc(-c2nnc(Nc3ccc(OCC(N)=O)cc3)c3ccccc23)cc1` as the molecule, how does the Potency read?
The Potency was “inactive”.

For `Cc1cc(C)n(-c2nnc(C)n2/N=C/c2cc(Br)ccc2OCc2ccccc2)n1`, which Potency is on record?
Its Potency is inconclusive: 10 µM [inhibitor, partial curve].

Which Potency does the source give for `COc1ccc(NC(=O)c2oc3c(c2C)-c2nn(Cc4c(F)cccc4Cl)cc2CC3)c(OC)c1` here?
The Potency was “inactive”.

For `O=S(=O)(Cc1ccccc1Cl)N1CCCCC1`, which Potency is on record?
The Potency was inconclusive: 11.2 µM [inhibitor, partial curve].

For `CCCC(=O)O[C@H]1C[C@@H](C)N(C(=O)c2ccccc2)c2ccc(C)cc21`, which Potency is on record?
Its Potency is inconclusive: 28.2 µM [inhibitor, single point].

How did the Potency turn out when `Cc1ccc(NC(=O)C(=O)NCC(c2cccnc2)N2CCN(C)CC2)cc1C` (stereo not given) was run?
The Potency was “inactive”.

With `CC(/C=C1\SC(=S)N(CC(=O)O)C1=O)=C\c1ccccc1` as the molecule, how does the Potency read?
Its Potency is active: 7.94 µM.

Which Potency does the source give for `O=C(NC(=O)c1ccccc1)OCCN1C(=O)c2ccccc2C1=O` here?
Its Potency is “inactive”.

How did the Potency turn out when `COc1ccc(CNc2nc3c(S(=O)(=O)c4ccccc4)nnn3c3ccc(Cl)cc23)cc1` was run?
Its Potency is inconclusive: 44.7 µM [activator, single point].

Which Potency does the source give for `O=C(Nc1ccc(C(F)(F)F)cc1)C1CCCN1S(=O)(=O)c1cccc2cccnc12` (stereo not given) here?
The Potency was inconclusive: 31.6 µM [inhibitor, single point].

For `CC(=O)N(Cc1cc(=O)[nH]c2ccccc12)c1cccc(C)c1`, which Potency is on record?
The Potency was inconclusive: 35.5 µM [inhibitor, single point].

`COc1ccc(C)cc1NC(=O)C(Sc1nnc(Nc2cc(C)ccc2OC)s1)c1ccccc1` (stereo not given) was tested. Which Potency did it give?
Its Potency is inconclusive: 17.8 µM [inhibitor, single point].

How did the Potency turn out when `COc1ccc(N2CCN(c3ncnc4nc[nH]c34)CC2)cc1` was run?
The Potency was active: 17.8 µM.

For `CC(C)N(CCO)C(=O)C(c1ccccc1)c1ccccc1`, which Potency is on record?
The Potency was “inactive”.

`CC1CCC(NC(=O)c2ccc3c(c2)N(Cc2cccc(F)c2)C(=O)c2ccccc2S3)CC1` (stereo not given) was tested. Which Potency did it give?
Its Potency is “inactive”.

`COc1ccc(-c2noc(C3CC(=O)N(c4ccc(C)c(F)c4)C3)n2)c(OC)c1` (stereo not given) was tested. Which Potency did it give?
Its Potency is inconclusive: 28.2 µM [inhibitor, single point].

`CCOC(=O)c1c(NC(=O)Nc2ccc(Cl)cc2)sc(C)c1C` was tested. Which Potency did it give?
Its Potency is “inactive”.

How did the Potency turn out when `COc1cc(OC)c(OC)cc1CN1CCc2nc(N3CCN(c4ncccn4)CC3)ncc2C1` was run?
Its Potency is inconclusive: 8.91 µM [inhibitor, partial curve].

`c1ccc(CNc2nc(NCc3ccccc3)c3ccccc3n2)cc1` was tested. Which Potency did it give?
The Potency was inconclusive: 0.0251 µM [activator, full curve, poor fit].

With `Cc1cccn2c(=O)c3cc(C(=O)N4CCN(C(=O)c5ccco5)CC4)n(C)c3nc12` as the molecule, how does the Potency read?
The Potency was inconclusive: 39.8 µM [inhibitor, partial curve, poor fit].

Which Potency does the source give for `N/C(Cc1ccc(Cl)cc1)=N\OC(=O)c1ccc2ccccc2c1` here?
Its Potency is “inactive”.

How did the Potency turn out when `COC(=O)/C(=C\c1cc(OC)c(OC)c(OC)c1)c1nc2ccccc2[nH]1` was run?
The Potency was inconclusive: 22.4 µM [inhibitor, partial curve].

`CCc1ccc(NS(=O)(=O)c2ccc3[nH]cc(C(=O)NC4CCCC4)c(=O)c3c2)cc1` was tested. Which Potency did it give?
Its Potency is “inactive”.

How did the Potency turn out when `COc1ccc(-n2cc(-c3ccccc3)c3c(SC(C)C(C)=O)ncnc32)cc1` (stereo not given) was run?
The Potency was “inactive”.

`CCc1cccc(NC(=O)CSC2=NS(=O)(=O)c3ccccc32)c1` was tested. Which Potency did it give?
Its Potency is inconclusive: 17.8 µM [inhibitor, partial curve].

`Cc1[nH]c2ccccc2c1C(O)CN1CCC2(CC1)OCCO2` (stereo not given) was tested. Which Potency did it give?
The Potency was inconclusive: 12.6 µM [inhibitor, partial curve].

Which Potency does the source give for `COc1cccc(-n2c(N)c(-c3nc4ccccc4[nH]3)sc2=S)c1` here?
The Potency was active: 7.94 µM.

With `COc1ccc(C(=O)Nc2cccc(/C=C/c3nc4ccccc4c(=O)[nH]3)c2)cc1` as the molecule, how does the Potency read?
The Potency was inconclusive: 1.41 µM [inhibitor, partial curve, poor fit].

For `CCOc1ccc(Nc2n[nH]c(=S)s2)cc1`, which Potency is on record?
The Potency was inconclusive: 14.1 µM [inhibitor, partial curve].

Which Potency does the source give for `CN1/C(=C\C(=O)c2ccco2)C(C)(C)c2ccccc21` here?
The Potency was inconclusive: 35.5 µM [inhibitor, single point].

`O=C(CNC(=S)N(CCCN1CCOCC1)Cc1cccs1)NCCCN1CCOCC1` was tested. Which Potency did it give?
Its Potency is inconclusive: 28.2 µM [inhibitor, partial curve].

For `CC(C)CCNC(=O)CN1C(=O)COc2ccc(S(=O)(=O)N3CCOCC3)cc21`, which Potency is on record?
The Potency was “inactive”.

How did the Potency turn out when `N#CCC(=O)Nc1nc(-c2ccc3c(c2)OCCO3)cs1` was run?
The Potency was inconclusive: 28.2 µM [inhibitor, partial curve].

For `O=C(O)c1ccc(O)c(O)c1`, which Potency is on record?
The Potency was inconclusive: 2.82 µM [inhibitor, full curve, poor fit].

With `CCOc1ccc(/C=C2\SC(=S)N(C(C(=O)O)c3ccccc3)C2=O)cc1OC` (stereo not given) as the molecule, how does the Potency read?
Its Potency is inconclusive: 14.1 µM [inhibitor, partial curve].

With `COc1ccc(C(=O)N/N=C/c2sc3ccccc3c2O)cc1` as the molecule, how does the Potency read?
Its Potency is active: 1.78 µM.

How did the Potency turn out when `COC(=O)c1ccccc1NC(=O)CSc1nc2ccsc2c(=O)n1CCC(C)C` was run?
The Potency was “inactive”.

How did the Potency turn out when `COC(=O)C1=C(C)NC(C)=C(C(=O)OCCNCc2ccccc2)C1c1cccc([N+](=O)[O-])c1` (stereo not given) was run?
The Potency was inconclusive: 14.1 µM [inhibitor, partial curve, poor fit].

Which Potency does the source give for `O=C1CC(c2ccccc2)CC(O)=C1C=Nc1ccc(O)cc1` (stereo not given) here?
Its Potency is inconclusive: 22.4 µM [inhibitor, partial curve].
